Laboratory results taken from the supplement of paper PMC11417369.
Some of the results follow.

tested on: PfHDP1 homeodomain (GST-tagged); assay: gcPBM binding intensity (ln(normalized median fluorescence intensity)); higher = stronger DNA binding
How it was run: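 GST-tagged P. falciparum DNA-binding domains produced in E. coli were incubated for 1 h on an Agilent 4 × 180k array of primer-extended double-stranded 36-bp intergenic genomic probes with negative controls. Binding intensity is the highest Masliner-normalised natural-log median intensity across replicate spots of either probe orientation, with bound protein detected by Alexa488 anti-GST antibody at 488 nm.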

Sequence	gcPBM binding intensity (ln)
ATATCATTAAAAGGATGTACATATGTGTATACAATA [XGTACX_site871]	7.36
TACATACATACATACACACACACATATATATACATA [CACACA_site853]	7.59
ATGGTACACAAATATACATGCAATAATAAAAAAAAA [TGCATGCA_site879]	6.71
TGCAGTCTGGAGAAAAGTACATAGTATCTGGTAACC [XGTACX_site2019]	6.09
ATATATATATATTTATGTACTTAATAATTTATTCAC [XGTACX_site7301]	8.53
TTTTTTTTTTAATTCGCACACTGTCTTCATACAATT [CACACA_site1379]	7.06
TTTTTATTACATAATTAAAAAAAATAATAAAATAAA [XGTACX_negctrl_site249]	6.03
AAAATACATAAATGTTCACACATTAAAAAGCAGAAG [CACACA_site5346]	6.67
TATGTCAGATGAAAGGGTACATAATATAATATATTT [XGTACX_site8062]	6.09
TTTATAAAGAAACACACACACATGTGAACATAAAAA [CACACA_site1908]	6.86
CACACCCACCAACACACACACACACCCACCCATATA [CACACA_site366]	6.72
CATAACATAAAATAGGTGCACAAAAATTGTAATTGA	10
TTATAAATGAATAAATGTACAAAATATATATATATA [XGTACX_site8829]	8.94
ATTTTTATTTGTTACGCATGCATAAAAGTGCATACT [TGCATGCA_site547]	8.53
TTCAGTGTATACATATGTACATATATATATATATAT [XGTACX_site1621]	9.41
TTGTAATATATGTATTGTACGCATATAACAATTATT [XGTACX_site3652]	6.32
GTGTAAATAAGGATATATAACAATCAACAAAACATA [CACACA_negctrl_site1759]	7
TGTATGAAATATATTACACACATATATAATATATAT [CACACA_site793]	6.65
ATACACAAAATTATTAAATCAATAAATATATGGTTT [CACACA_negctrl_site353]	6.22
ATATTTTTCAAACATCGTACATTATGAGTTAAAATT [XGTACX_site584]	6.29
AATAAATACACATACACACACGACGCTAGTATATGT [CACACA_site6627]	7.18
AGAATAAATATGTGGTGTTATAGTATTAATGTTAAT [TGCATGCA_negctrl_site62]	6.32

Sequence	gcPBM binding intensity (ln)
ATAAATATACCAATCGGTACACATTTATACAAACAA [XGTACX_site7484]	6.71
GCTATAAATATAATCACACATAAATATATAATATAT [CACACA_site5144]	6.29
AGGAGGATAGTTCACAGTACCCAGGAAATCTGCGGA [XGTACX_site4928]	5.98
TATGCAATAAAATATACACACAATATACTTATATAT [CACACA_site7691]	6.84
TTTATTTTCCAAAGGGTGCACATAGTTAAAACGATA [GTGCAC_site9855]	9.64
TTAATTTTTTTTTAAACACACATTTTTTTATTTAAG [CACACA_site2738]	6.25
TGAATAAAATATTATACACACATATGTATATAACAT [CACACA_site974]	6.45
GTTATAAATAATAAATAAATAATCAAATGAAGAATG [CACACA_negctrl_site653]	6.45
TATTAATTTTTTTTTTTTTTTTTTTTTTTTTTTTTT [CACACA_negctrl_site1329]	7.43
TCCTTATTTCATATTTTTAAATAATACAAAAAAAAA [CACACA_negctrl_site773]	6.17
GAATATTAAATATTATCACACACATAATTATTTCCA [CACACA_site8730]	6.49
AAATAAAAAAAAGCCTGTACATGTTCATAAATTTTT [XGTACX_site7925]	6.37
ATATATATTTATAATCGTACGTACCTAACAATACAA [XGTACX_site4510]	7.04
TTCTATTTATATGTGGGTACTAATTTTTTTTCTTTT [XGTACX_site7104]	6.52
TTTTATATGTTATATACACACATATAAATAAATATA [CACACA_site7418]	6.69
AAAAAAAAATTAAAATGTACACATAAAAAAAAAAAA [XGTACX_site794]	6.14
AAAAATAAATAAATATGTACATATATACATATATAT [XGTACX_site5892]	6.42
TATATCATATAAAACCGTACATACATACTTAATTGT [XGTACX_site6822]	6.33
ATCTATATTCATAATACACACATTCTGTAGCATTAT [CACACA_site7058]	6.92
TGATTAATTTTTAAATGTACTTAAAAATATACTTAT [XGTACX_site2872]	6.25
TAACATATGGGACACACATGCAACTGTTATATGTCC [TGCATGCA_site959]	6.75
AGAAAACATATGTTTTGTACTTAAGAAAAAAAAAAA [XGTACX_site4231]	6.58
